# Test results from the supplement of paper PMC10037445.
# Several values for one entry are separate records, joined by “and”; a condition that tells them apart may be missing. Equal values may be shown once. ± gives the standard deviation of the averaged measurements. Over roughly 2,900 compounds, “IRF Lucia reporter activity, fold change vs agonist alone” has its median near 0.9; the highest 2% begin near 2.8. Some of the results follow.
# Experiments:
# RAW-Dual [1] = experiment: IRF Lucia reporter activity, fold change vs agonist alone; cytotoxicity flag (confluency mask): not cytotoxic; higher = enhanced IRF activity
# Method in brief: (§1)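 Reporter activity is given as fold change relative to agonist-alone wells. To measure it, 50 nL of library stock was pin-tooled onto RAW-Dual macrophages (50,000 cells/well, DMEM, 384-well plates), a PRR agonist followed 1 h later, and cells stayed at 37 °C, 5% CO2. Twenty hours on, supernatant was assayed for IRF (QuantiLuc luminescence) and NF-κB (QuantiBlue, 620 nm absorbance), and wells under 70% of agonist-control IncuCyte confluency in both mask sets were marked cytotoxic.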
# RAW-Dual [2] = experiment: IRF Lucia reporter activity, fold change vs agonist alone; higher = enhanced IRF activity; settings: library stock concentration (final ~1000-fold dilution): 10 mM, agonist: MPLA (TLR4) […]
# Method in brief: as §1
# RAW-Dual [3] = experiment: IRF Lucia reporter activity, fold change vs agonist alone; cytotoxicity flag (confluency mask): cytotoxic (confluency <70% of control); higher = enhanced IRF activity
# Method in brief: as §1
# [4] = agonist: 3'3'-cGAMP (STING) 10 ug/mL
# [5] = cytotoxicity flag (confluency mask): not cytotoxic
smiles,measurement,setting,value
CC#CC(=O)N1CCC(n2c(=O)n(-c3ccc(Oc4ccccc4)cc3)c3c(N)ncnc32)C1.Cl (stereo not drawn) (library stock concentration (final ~1000-fold dilution): 10 mM),IRF Lucia reporter activity,RAW-Dual [1]; [4],0.0947
same,IRF Lucia reporter activity,RAW-Dual [1]; agonist: LPS (TLR4) 0.1 ug/mL,0.802
CN1CCN(c2ccc(-c3ccncc3-c3cc(F)c(O)c(F)c3)cc2)CC1 (library stock concentration (final ~1000-fold dilution): 10 mM),IRF Lucia reporter activity,RAW-Dual [1]; [4],0.631
same,IRF Lucia reporter activity,RAW-Dual [1]; agonist: LPS (TLR4) 0.1 ug/mL,1
Cc1cc(Nc2ccc(NC(=O)c3ccc(Nc4ccnc5ccccc45)cc3)cc2)nc(N)n1,IRF Lucia reporter activity,RAW-Dual [2]; [5],3.15
Cc1cc(Nc2ccc(NC(=O)c3ccc(Nc4ccnc5ccccc45)cc3)cc2)nc(N)n1 (library stock concentration (final ~1000-fold dilution): 10 mM),IRF Lucia reporter activity,RAW-Dual [1]; [4],1.65
same,IRF Lucia reporter activity,RAW-Dual [1]; agonist: LPS (TLR4) 0.1 ug/mL,2.84
CCC1C(COc2nccc3cc(C(N)=O)c(OC)cc23)NC(=O)C1F (stereo not drawn) (library stock concentration (final ~1000-fold dilution): .1 mM),IRF Lucia reporter activity,RAW-Dual [1]; [4],0.825
same,IRF Lucia reporter activity,RAW-Dual [1]; agonist: LPS (TLR4) 0.1 ug/mL,1.06
CCOc1nc2cccc(C(=O)OCc3oc(=O)oc3C)c2n1Cc1ccc(-c2ccccc2-c2nc(=O)o[nH]2)cc1 (library stock concentration (final ~1000-fold dilution): 10 mM),IRF Lucia reporter activity,RAW-Dual [1]; [4],1.04
same,IRF Lucia reporter activity,RAW-Dual [1]; agonist: LPS (TLR4) 0.1 ug/mL,1.16
CCOc1nc2cccc(C(=O)OCc3oc(=O)oc3C)c2n1Cc1ccc(-c2ccccc2-c2nc(=O)o[nH]2)cc1,IRF Lucia reporter activity,RAW-Dual [2]; [5],1.16
CCOc1cc(N)c([N+](=O)[O-])cc1C(=O)NC1CCN(CC2CC=CCC2)CC1.O=C(O)C(O)C(O)C(=O)O (stereo not drawn) (library stock concentration (final ~1000-fold dilution): 10 mM),IRF Lucia reporter activity,RAW-Dual [1]; [4],0.711
same,IRF Lucia reporter activity,RAW-Dual [1]; agonist: LPS (TLR4) 0.1 ug/mL,1.27
CCOc1cc(N)c([N+](=O)[O-])cc1C(=O)NC1CCN(CC2CC=CCC2)CC1.O=C(O)C(O)C(O)C(=O)O (stereo not drawn),IRF Lucia reporter activity,RAW-Dual [2]; [5],1.24
CC(C)(C(=O)c1cccnc1)c1cccnc1 (library stock concentration (final ~1000-fold dilution): 10 mM),IRF Lucia reporter activity,RAW-Dual [1]; [4],1.02
same,IRF Lucia reporter activity,RAW-Dual [1]; agonist: LPS (TLR4) 0.1 ug/mL,1.2
CC(C)(C(=O)c1cccnc1)c1cccnc1,IRF Lucia reporter activity,RAW-Dual [2]; [5],1.07
O=C(Cc1ccc(-c2ccc(OCCN3CCOCC3)cc2)cn1)NCc1ccccc1,IRF Lucia reporter activity,RAW-Dual [2]; [5],2
O=C(Cc1ccc(-c2ccc(OCCN3CCOCC3)cc2)cn1)NCc1ccccc1 (library stock concentration (final ~1000-fold dilution): 10 mM),IRF Lucia reporter activity,RAW-Dual [1]; [4],0.128
same,IRF Lucia reporter activity,RAW-Dual [1]; agonist: LPS (TLR4) 0.1 ug/mL,1.72
CCOc1cc(C(=O)N2CCC(N3CCN(C)CC3)CC2)ccc1Nc1ncc2c(n1)N(C1CCCC1)c1ccccc1C(=O)N2C (library stock concentration (final ~1000-fold dilution): 10 mM),IRF Lucia reporter activity,RAW-Dual [3]; [4],0.277
same,IRF Lucia reporter activity,RAW-Dual [3]; agonist: LPS (TLR4) 0.1 ug/mL,0.161
CCOc1cc(C(=O)N2CCC(N3CCN(C)CC3)CC2)ccc1Nc1ncc2c(n1)N(C1CCCC1)c1ccccc1C(=O)N2C,IRF Lucia reporter activity,RAW-Dual [2]; cytotoxicity flag (confluency mask): cytotoxic (confluency <70% of control),0.12
O=C(NOCCO)c1ccc2cncn2c1Nc1ccc(I)cc1F (library stock concentration (final ~1000-fold dilution): 10 mM),IRF Lucia reporter activity,RAW-Dual [1]; [4],0.814
same,IRF Lucia reporter activity,RAW-Dual [1]; agonist: LPS (TLR4) 0.1 ug/mL,3.65
O=C(NOCCO)c1ccc2cncn2c1Nc1ccc(I)cc1F,IRF Lucia reporter activity,RAW-Dual [2]; [5],3.27
O=c1cc(-c2ccc(O)c(O)c2)oc2cc(O)cc(O)c12,IRF Lucia reporter activity,RAW-Dual [2]; [5],0.357
O=c1cc(-c2ccc(O)c(O)c2)oc2cc(O)cc(O)c12 (library stock concentration (final ~1000-fold dilution): 10 mM),IRF Lucia reporter activity,RAW-Dual [1]; [4],0.107
same,IRF Lucia reporter activity,RAW-Dual [1]; agonist: LPS (TLR4) 0.1 ug/mL,0.118
C[N+]1(C)CCC[C@H]1C(=O)[O-] (library stock concentration (final ~1000-fold dilution): 10 mM),IRF Lucia reporter activity,RAW-Dual [1]; [4],0.978
same,IRF Lucia reporter activity,RAW-Dual [1]; agonist: LPS (TLR4) 0.1 ug/mL,1.09
CC1(C)C(C(=O)O)N2C(=O)CC2S1(=O)=O (stereo not drawn) (library stock concentration (final ~1000-fold dilution): 10 mM),IRF Lucia reporter activity,RAW-Dual [1]; [4],0.996 and 1.02
same,IRF Lucia reporter activity,RAW-Dual [1]; agonist: LPS (TLR4) 0.1 ug/mL,1.04 and 0.912
C=CC(=O)N1CCC(Oc2nc(Nc3ccc(N4CCC(N5CCN(C)CC5)CC4)cc3)c(C(N)=O)nc2CC)C1 (stereo not drawn) (library stock concentration (final ~1000-fold dilution): 10 mM),IRF Lucia reporter activity,RAW-Dual [3]; [4],0.0235
same,IRF Lucia reporter activity,RAW-Dual [3]; agonist: LPS (TLR4) 0.1 ug/mL,0.0192
O=C(Nc1ccc(Cl)cc1)C1CCCN(C(=O)c2cccc(-c3ccco3)c2)C1 (stereo not drawn) (library stock concentration (final ~1000-fold dilution): 10 mM),IRF Lucia reporter activity,RAW-Dual [1]; [4],0.684
same,IRF Lucia reporter activity,RAW-Dual [1]; agonist: LPS (TLR4) 0.1 ug/mL,0.658
CC1(C)CCC2(NC(=O)C(C)(F)F)CCC3(C)C(C(=O)C=C4C5(C)C=C(C#N)C(=O)C(C)(C)C5CCC43C)C2C1 (stereo not drawn) (library stock concentration (final ~1000-fold dilution): 10 mM),IRF Lucia reporter activity,RAW-Dual [3]; [4],0.00909 ± 0.0055
same,IRF Lucia reporter activity,RAW-Dual [3]; agonist: LPS (TLR4) 0.1 ug/mL,0.0119 ± 0.011
CC(C)N(CCCNC(=O)Nc1ccc(C(C)(C)C)cc1)CC1OC(n2cc(Br)c3c(N)ncnc32)C(O)C1O (stereo not drawn),IRF Lucia reporter activity,RAW-Dual [2]; [5],1.27
CC(C)N(CCCNC(=O)Nc1ccc(C(C)(C)C)cc1)CC1OC(n2cc(Br)c3c(N)ncnc32)C(O)C1O (stereo not drawn) (library stock concentration (final ~1000-fold dilution): 10 mM),IRF Lucia reporter activity,RAW-Dual [1]; [4],0.376
same,IRF Lucia reporter activity,RAW-Dual [1]; agonist: LPS (TLR4) 0.1 ug/mL,1.1
